The chains are these.
B1: LINE1-mini (parent)
chain: GGCAGAGCUCAACACAGCGUGGCAAAGUGGCUGUGGCUAGACUGCC

This passage reports self-cleavage results from the RNAGym collection of RNA variant scans (doi:10.7554/elife.90254).

The source gives no read counts; variants with many changes may rest on few reads.

In the data set the parent is B1. As to the kind of experiment: self-cleavage, relative activity (ratio to wild type); higher = more cleavage; in vitro, sequencing; the parent is a self-cleaving ribozyme.
On to A16C G40U U43A, for which the self-cleavage is 0.19.
As to A16G A26C G27C, the self-cleavage worked out at 0.34.
A16U A25U G30A A39U G40C C42A: the self-cleavage worked out at 0.12.
A16C U32C C46A: the self-cleavage turned out to be 0.06.
For A16G C18A G27C G36U, the self-cleavage was 0.01.
A16G C23U C37G: the self-cleavage was determined as 0.
Take A16C G29U G33A: the self-cleavage is 0.01.
The value for A16U A26U C45U was 0.14; that for A16U G19C G36U was 0.06; that for A16U G19A C23U was 0.16.
In the case of A16G C23A G33C, the self-cleavage was found to be 0.
On to A16U G17U C23U A24C G29U, for which the self-cleavage stood at 0.01.
As for A16C G33U U34C, the self-cleavage was 0.29.
With A16G C31A C46U, the self-cleavage is 0.06.
As for A16U A25G G27C, the self-cleavage was 0.08.
The value for A16C U34C G35U C37U was 0.02; that for A16G G19A A25G A26U was 0.01.
Consider A16C G19U G44A, for which the self-cleavage was determined as 0.01.
Under A16G A26U U28C C31U G36U G44C stands 0; under A16C U34C U38A, 0.02; under A16G G21A U28C C37U, 0.04.
In the case of A16G C37U C42A, the self-cleavage was 0.01.
For the variant A16U G17A G19A G36A, the self-cleavage stood at 0.18.
Take A16G G22A C31U: the self-cleavage is 0.05.
For A16G A39U C42A, the self-cleavage turned out to be 0.06.
For A16U G19U G40U, the self-cleavage turned out to be 0.04.
Consider A16G U20A C31A, for which the self-cleavage is 0.01.
As to A16C G19U C23A, the self-cleavage is 0.04.
Regarding A16U C31A A39G U43A, the self-cleavage came out at 0.02.
Regarding A16U C18A G35U, the self-cleavage is 0.03.
Consider A16U C18A G21A C23A C31G, for which the self-cleavage worked out at 0.01.
On to A16U G19C G44U C46A, for which the self-cleavage is 0.08.
A16G G40A C42A: the self-cleavage is 0.
As to A16U C18G G40A, the self-cleavage was 0.02.
On to A16C U34A C42G C45U, for which the self-cleavage is 0.06.
On to A16G G17A U20G, for which the self-cleavage is 0.03.
On to A16U G17A U20A C31G G36C A39C, for which the self-cleavage amounted to 0.
On to A16U C23U U32A, for which the self-cleavage was 0.15.
The value for A16G C23G C37A was 0.05; that for A16G U28C G29C G40U G44A was 0.01.
For the variant A16G C18G C37U U38G, the self-cleavage is 0.
For A16C G29U C46A, the self-cleavage turned out to be 0.3.
As to A16G A39C A41U, the self-cleavage was determined as 0.15.
Under A16C G17C U20A G29U stands 0.11.
In the case of A16U G19A G35C, the self-cleavage was found to be 0.05.
Take A16C G21U U32A U38G: the self-cleavage stood at 0.
On to A16U A24U A25U U28G, for which the self-cleavage was found to be 0.81.
Take A16U A25C G30C G35C: the self-cleavage turned out to be 0.11.
For A16U G30C U32G A39G G44A, the self-cleavage is 0.
On to A16U G29U C31A, for which the self-cleavage amounted to 0.05.
Consider A16U G30U U32C, for which the self-cleavage was determined as 0.02.
As for A16U A25G G30C, the self-cleavage came to 0.26.
In the case of A16U G19U G27U G33U, the self-cleavage came to 0.03.
On to A16U A24U U38C, for which the self-cleavage is 0.04.
Regarding A16C G29C C45G, the self-cleavage was 0.08.
On to A16U G27C C37U U43A, for which the self-cleavage came to 0.45.
On to A16G G19A A25G C37A, for which the self-cleavage was 0.01.
Turning to A16U G22U C23A, the self-cleavage was determined as 0.5.
On to A16U G22C C37U C45A, for which the self-cleavage was 0.01.
Under A16U C18G A26U U32G stands 0.09.
As to A16G G21A U38C, the self-cleavage came out at 0.15.
Turning to A16G G17A G44A, the self-cleavage is 0.01.
Take A16U G19U A24U: the self-cleavage is 0.05.
A16U C18A G21A: the self-cleavage worked out at 0.1.
Under A16U A24U G36A C42U stands 0.01.
Regarding A16U A41C C46G, the self-cleavage amounted to 0.
With A16U G17U G21U U34G, the self-cleavage was determined as 0.03.
Take A16C G21C G22A: the self-cleavage is 0.08.
For A16U A26U U28C, the self-cleavage came to 0.06.
As to A16U G21U U32G A39G, the self-cleavage was 0.06.
Consider A16C G22A G36U G40U, for which the self-cleavage was 0.02.
Under A16G G29A G30A stands 0.05.
The value for A16U C31G C37U was 0.01; that for A16U G21A G27C G29A was 0.9; that for A16U G21U U34G U38C A39U was 0.01.
A16G C18U G21A: the self-cleavage was 0.48.
Consider A16C G17C U43C, for which the self-cleavage turned out to be 0.
On to A16G C18G G40C, for which the self-cleavage was 0.17.
A16G A25C A41U: the self-cleavage worked out at 0.
In the case of A16C G21U A26C G35A, the self-cleavage is 0.08.
In the case of A16C G17U G29C C45G, the self-cleavage stood at 0.02.
For the variant A16U A26C C37U, the self-cleavage was 0.04.
A16G G17A U32A: the self-cleavage came to 0.03.
On to A16G U20G C42A, for which the self-cleavage is 0.09.
The value for A16U A26G G27A G36A C42G was 0.02.
The value for A16C G27A C31G was 0; that for A16G C18U A24C G33A U43C was 0; that for A16U G19U G27U G36A was 0.14.
A16G G22U G27U U34G A41G: the self-cleavage is 0.01.
The value for A16G A25U G30U U34C was 0.01; that for A16U G19A U20A A24G U34A A41U C45G was 0.03.
A16G C18U C46A: the self-cleavage came out at 0.06.
Regarding A16U G17U C18A C31G, the self-cleavage was found to be 0.02.
For the variant A16U G30C A39C, the self-cleavage was 0.03.
For A16U C23G A24U G35U A41C, the self-cleavage is 0.01.
On to A16G G19A A41U, for which the self-cleavage came out at 0.13.
On to A16G G19U G44C, for which the self-cleavage worked out at 0.46.
With A16U A24G G44C, the self-cleavage is 0.05.
With A16C G22A U34C G35U C42U, the self-cleavage is 0.02.
On to A16C G40C U43A, for which the self-cleavage worked out at 0.03.
A16U G33A C37A C46G: the self-cleavage was 0.05.
For A16C G17U G36C U38C, the self-cleavage is 0.02.
Regarding A16G G29C G40A, the self-cleavage is 0.07.
Under A16C G21U G35U stands 0.02; under A16G G21C G33U, 0.08.
In the case of A16G G17A C45U, the self-cleavage was 0.01.
On to A16C G21A G22A, for which the self-cleavage is 0.06.
For A16C G19A G36C C37U, the self-cleavage came out at 0.04.
With A16U C31G A41C C42G, the self-cleavage came out at 0.03.
Consider A16G U34A G36C U38A A41G, for which the self-cleavage amounted to 0.
For the variant A16U C31G C42U U43A, the self-cleavage was found to be 0.01.
For the variant A16G G19A A25U, the self-cleavage worked out at 0.26.
Regarding A16G G19A U20C U32C A39U U43A, the self-cleavage worked out at 0.3.
In the case of A16U C31A G40C C46U, the self-cleavage was determined as 0.01.
A16U G19C G30A: the self-cleavage amounted to 0.14.
With A16U A24C G29U C46G, the self-cleavage was found to be 0.02.
In the case of A16G C18A C31U G33U A41G, the self-cleavage came to 0.08.
Under A16C G22U A25G U28A G36A G40C stands 0.04; under A16U C42U C45U, 0.05.
Consider A16G G29A C37A, for which the self-cleavage stood at 0.14.
For the variant A16U A26C G27C C46U, the self-cleavage worked out at 0.04.
On to A16U G40A U43G, for which the self-cleavage worked out at 0.04.
Under A16U C23A A39C stands 0.03; under A16U G17A U28A, 0.04.
On to A16U G17U G19A U38A C45U, for which the self-cleavage stood at 0.07.
With A16U C18U G36U, the self-cleavage came to 0.13.
As for A16G G19U A24G G30A C42G, the self-cleavage came out at 0.02.
For the variant A16G G27C G33U, the self-cleavage was 0.01.
For A16G G27A A41G, the self-cleavage is 0.12.
In the case of A16C G17C G21A C31U, the self-cleavage turned out to be 0.09.
On to A16U G17U A39C, for which the self-cleavage turned out to be 0.02.
Under A16U G17U A39G stands 0.05.
On to A16U G29U C31U C42U, for which the self-cleavage came out at 0.05.
In the case of A16G C18A A26C, the self-cleavage was found to be 0.06.
For A16G U28A G33C G36A C42A, the self-cleavage was 0.01.
Consider A16U A26U G30C, for which the self-cleavage was 0.45.
Under A16G G35A U38C C42A stands 0.21.
On to A16U A26G G44A, for which the self-cleavage came to 0.17.
Under A16U G22A C23A C31U stands 0.01; under A16C G21A G36A, 0.02; under A16G U20G C23A U32G C42U, 0.06.
A16G G27U G44C: the self-cleavage worked out at 0.19.
Regarding A16U G33U C37U, the self-cleavage is 0.03.
Turning to A16U G29C G30A, the self-cleavage was 0.1.
Take A16G G33A U43A C46U: the self-cleavage worked out at 0.01.
Turning to A16U G30A C31A G36C A41U, the self-cleavage is 0.09.
Consider A16G G35U U43A, for which the self-cleavage turned out to be 0.05.
Under A16U G30C G33C C45U stands 0.03.
A16C G36U C37U: the self-cleavage was 0.03.
Take A16C G30A A41G: the self-cleavage stood at 0.04.
Consider A16G C18A G36A, for which the self-cleavage came to 0.17.
For the variant A16U A26C G33A C37U, the self-cleavage is 0.06.
Turning to A16U G30A C31A, the self-cleavage amounted to 0.01.
As for A16G A26G U38C, the self-cleavage came to 0.11.
Regarding A16U G17A G22U G40A, the self-cleavage was 0.02.
Consider A16G U20C G21A G44A, for which the self-cleavage amounted to 0.05.
Regarding A16C G19A G33U, the self-cleavage amounted to 0.08.
For the variant A16U G29U G44A, the self-cleavage worked out at 0.26.
The value for A16G G19A C45A was 0.8; that for A16G G35U G44U was 0.02; that for A16U A25C G30A A39G was 0.01.
On to A16G U20C G22U, for which the self-cleavage amounted to 0.
Under A16G G19C G30C U38C stands 0.03.
On to A16U G17U A24G, for which the self-cleavage was found to be 0.03.
Regarding A16G C31U G33C G40U U43C, the self-cleavage was 0.
For the variant A16U G29U G30U G36C, the self-cleavage stood at 0.02.
Turning to A16C U28C G44C, the self-cleavage stood at 0.04.
